Measurements: PubChem BioAssay AID1347043 (National Center for Advancing Translational Sciences (NCATS), 2019)
The campaign covered roughly 76,000 compounds. About 1,900 (2.5%) were called active. The inconclusive results got no clear call from the source; some entries with a clear call stand among them for comparison. Calls come from the whole dose curve; as a rule, active = well fitted inhibition curve with a large enough effect; inconclusive = small, poorly fitted or top-dose-only effect; inactive = flat fitted curve, though single readings scatter. Potencies beside an inconclusive call are fits to weak or partial responses and may not hold up.

The compounds below were run against Luciferin 4-monooxygenase (Photinus pyralis) (UniProt P08659) (assay: Firefly luciferase inhibition profiling of diverse chemical library using quantitative high-throughput screening). Settings: purified P. pyralis luciferase, luminescence, biochemical; series mostly up to 115 µM.
Chain of UniProt P08659 (P08659 whole entry, looked up): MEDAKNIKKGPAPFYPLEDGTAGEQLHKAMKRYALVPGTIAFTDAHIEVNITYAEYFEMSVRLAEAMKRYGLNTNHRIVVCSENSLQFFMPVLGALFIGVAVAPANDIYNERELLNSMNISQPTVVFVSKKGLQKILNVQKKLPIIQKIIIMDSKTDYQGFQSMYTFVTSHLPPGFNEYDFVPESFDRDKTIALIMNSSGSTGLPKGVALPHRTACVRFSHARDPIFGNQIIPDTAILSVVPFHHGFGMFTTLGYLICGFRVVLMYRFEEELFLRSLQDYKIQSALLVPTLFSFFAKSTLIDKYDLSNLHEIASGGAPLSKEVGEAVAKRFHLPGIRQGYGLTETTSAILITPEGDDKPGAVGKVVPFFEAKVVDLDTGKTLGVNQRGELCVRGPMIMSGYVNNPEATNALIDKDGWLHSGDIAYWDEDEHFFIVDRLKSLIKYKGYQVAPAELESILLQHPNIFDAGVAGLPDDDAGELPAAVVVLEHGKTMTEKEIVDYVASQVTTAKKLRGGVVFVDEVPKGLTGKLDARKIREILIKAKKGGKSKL
Procedure, shortened: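 Inhibitors were tested against purified firefly luciferase in a biochemical, low-substrate format (both substrates at 10uM) and luminescence measured with a CCD imager.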
Note: nearly all actives have a fitted effect of over 65% in size.
Potency is the fitted concentration of half-maximal effect; tags give direction and shape of the fitted curve.

Row | SMILES | Potency
1 | COCCN1CCC2(C1)CN(C)c1ccc(C(=O)NCCOc3ccccc3)cc12 (configuration not stated) | inactive
2 | COc1ccc(NC(=O)CCn2ccn3nc4c(c3c2=O)CCCC4)cc1OC | inactive
3 | O=C(Nc1cnc(-c2ccc(Cl)cc2)nc1)c1ccc(F)c(F)c1 | inconclusive: 89.1 µM [inhibitor, partial curve, poor fit]
4 | O=C(c1ccc(=O)[nH]c1)N1C[C@@H](COCC2CC2)[C@H](c2ccncc2)C1 | inconclusive: 39.8 µM [inhibitor, partial curve]
5 | COc1ccc2[nH]cc(CCNC(=O)CCC3CCN(C(=O)c4ccccc4)CC3)c2c1 | inconclusive: 39.8 µM [inhibitor, partial curve]
6 | Cc1nc(CNC(=O)c2ccc3oc(-c4cccc(F)c4)nc3c2)cs1 | active: 31.6 µM
7 | Cn1c2c(c3cc(F)ccc31)CN(C(=O)Nc1cccc(F)c1)CC2 | inconclusive: 39.8 µM [inhibitor, partial curve]
8 | O=C(NCc1ccc(Cl)cc1)c1cc2cccnn2n1 | active: 44.7 µM
9 | COc1ccc(-c2cn3c(n2)CO[C@@H](CNCc2nccn2C)C3)cc1 | inconclusive: 70.8 µM [inhibitor, partial curve]
10 | CC(=O)N1CCCC(c2nc(-c3ccc4nc[nH]c4c3)no2)C1 (configuration not stated) | inconclusive: 89.1 µM [inhibitor, single point]
11 | CCCN(C)c1nccnc1OC1CCN(C(=O)Cc2ccccc2OC)C1 (configuration not stated) | active: 35.5 µM
12 | Cc1ccc(CN2C[C@@H]3C(=O)N(CCc4ccccc4)C(=O)[C@@H]3C2)c(C)c1 | inactive
13 | CCOc1cc(=O)n2c(c1C(=O)Nc1ccc3c(c1)OCCO3)CCCCC2 | active: 39.8 µM
14 | N#Cc1cccc(C(=O)N2CCCCCNC(=O)[C@@H]3CCC[C@@H]32)c1 | inactive
15 | Cc1cn2nc(C(=O)NCc3ccc(C(C)C)cc3)cc2c(=O)[nH]1 | active: 14.1 µM
16 | COC(=O)CNC(=O)c1nc(-c2ccc(Cl)cc2)c2ccccn12 | inconclusive: 112 µM [inhibitor, partial curve]
17 | Cn1cnc2cc(-c3ccc(F)cc3)cc(C(=O)NCC3CCOCC3)c21 | inconclusive: 70.8 µM [inhibitor, full curve]
18 | CCc1ccc(NC(=O)c2ccc3c(c2)N(CC)C2CCCCCN2C3=O)cc1 (configuration not stated) | inconclusive: 11.2 µM [inhibitor, full curve, poor fit]
19 | Cn1ccc2c(C(=O)NCc3cccnc3)nc(-c3ccc(N4CCOCC4)cc3)cc21 | active: 14.1 µM
20 | COc1ccc(C(=O)N2CC(c3nnc(C(C)C)o3)C3(CCOCC3)C2)cc1OC (configuration not stated) | inactive
21 | CCN1CCN(c2ccc(-c3cccc(N)c3)nn2)CC1 | active: 14.1 µM
22 | CCOCCn1c(=O)[nH]c2cc(C(=O)NCc3n[nH]c(C)n3)ccc21 | inactive
23 | CCCCN1C(=O)c2ccccc2C(C(=O)NCc2cccnc2)C12CCCCC2 (configuration not stated) | inactive
24 | CC(C)N1C(=O)C2(CCCC2)C1C(=O)N1CCCCC1 (configuration not stated) | inactive

Row | SMILES | Potency
25 | Cc1ccc(C(=O)N2CCC(CCC(=O)NCCc3c[nH]c4ccccc34)CC2)cc1 | active: 31.6 µM
26 | O=C(c1cc(C2CC2)[nH]n1)N(Cc1ccc2c(c1)OCO2)C1CC1 | active: 28.2 µM
27 | CN1C[C@@H](NC(=O)Nc2ccccc2)C[C@H]1c1nc(-c2ccc(Cl)cc2)no1 | active: 35.5 µM
28 | CN(C)CC1(O)CCC2(CCN(C(=O)CCCc3ccccc3)CC2)CC1 | inconclusive: 14.1 µM [inhibitor, full curve]
29 | Cc1ccc(C2Cn3nnc(C(=O)N4CCC(C(=O)NCC(C)c5ccccc5)CC4)c3CO2)cc1 (configuration not stated) | active: 31.6 µM
30 | O=C(CCC1CCN(c2cc(NC3CC3)ncn2)CC1)NCC1CC1 | inconclusive: 50.1 µM [inhibitor, partial curve, poor fit]
31 | O=C(NCC1CCOCC1)c1n[nH]c2ccccc12 | inconclusive: 44.7 µM [inhibitor, partial curve]
32 | COc1ccc(-c2nnc(C[C@@H]3C[C@@H](C(C)C)[C@H](CNC(=O)c4ccc(F)cc4)C=C3C)o2)cc1 | inactive
33 | COc1cccc(C(=O)NCc2nnc3c(-c4nc(C(C)C)no4)cccn23)c1 | inactive
34 | CCOc1ccccc1CN1CCCC(c2nc(-c3cccnc3)no2)CCNC(=O)CC1 (configuration not stated) | inactive
35 | Cc1ccccc1CC(=O)N1CCCC(n2cc(-c3nc(-c4ccccc4)no3)nn2)C1 (configuration not stated) | inconclusive: 100 µM [inhibitor, single point]
36 | NC(=O)c1cccc(-c2cc3c(cn2)CN(CCc2ccccc2)CCN3)c1 | inconclusive: 70.8 µM [inhibitor, partial curve, poor fit]
37 | Cc1nc(CN2C(=O)OC3(CCN(C(=O)c4ccc(Oc5ccccc5)cc4)CC3)C2(C)c2ccccc2)cs1 (configuration not stated) | inactive
38 | Cc1nc(-c2ccccc2OC2CN(S(=O)(=O)Cc3ccccc3F)C2)no1 | inactive
39 | O=C(Nc1ccccc1)c1cnc2n1CCN(Cc1cccc(O)c1)CC2 | inconclusive: 70.8 µM [inhibitor, full curve]
40 | CC(C)n1cc(-c2cc(C(=O)N(C)Cc3cccnc3)c3cc(F)ccc3n2)cn1 | active: 35.5 µM
41 | COc1ccc(CC2CN(C(=O)c3ccsc3)CCO2)cc1 (configuration not stated) | inconclusive: 44.7 µM [inhibitor, partial curve, poor fit]
42 | O=C(NCCc1cccs1)c1cccc2c1CCN2C(=O)Nc1ccccc1 | active: 15.8 µM
43 | CCN(C)C(=O)CCc1c(C)nn(-c2cccc(C)c2)c1Oc1ccc(F)cc1F | inactive
44 | COc1ccc(-c2noc([C@@H]3C[C@H](NCc4cccc(C#N)c4)CN3C)n2)cc1 | active: 39.8 µM
45 | CCc1cccc2c(C(CC(=O)NCCc3ccccc3)c3cccc4c3OCO4)c[nH]c12 (configuration not stated) | inconclusive: 44.7 µM [inhibitor, partial curve]
46 | Cc1noc(C)c1CCCNC(=O)c1ccc(N2CCC[C@H]2CO)nc1 | inconclusive: 44.7 µM [inhibitor, partial curve]
47 | COc1ccc(OCc2cc(C(=O)N3C[C@H]4CC[C@H]3C4)n[nH]2)c(Cl)c1 | active: 8.91 µM
48 | Cc1ccc(-c2cn3c(n2)CO[C@@H](CNCc2ccc(S(C)(=O)=O)cc2)C3)cc1 | inconclusive: 70.8 µM [inhibitor, partial curve]

Row | SMILES | Potency
49 | Cc1c(O)cccc1C(=O)N1CC[C@@H](NC(=O)c2ccccn2)[C@H](O)C1 | inconclusive: 35.5 µM [inhibitor, full curve]
50 | O=C(C[C@@H]1O[C@H](CNS(=O)(=O)c2ccc(Cl)cc2)[C@@H](O)[C@H]1O)NC1CC1 | inactive
51 | CC1(COCC2CC2)COc2ccc(C(=O)Nc3ccc4[nH]ccc4c3)cc2N1 (configuration not stated) | active: 15.8 µM
52 | Cc1nc2ccc(C(=O)N3CCCC(C)(Cc4ccc5c(c4)OCO5)C3)cc2o1 (configuration not stated) | inconclusive: 44.7 µM [inhibitor, partial curve]
53 | O=C(O)CCC(=O)N[C@H]1CO[C@H]2[C@@H]1OC[C@@H]2n1nnnc1Oc1ccc(-n2ccnc2)cc1 | inactive
54 | Cc1ccc(NC(=O)N2CCC3(CC2)SCC(=O)N3Cc2ccccc2)cc1 | inconclusive: 2 µM [inhibitor, full curve]
55 | COc1ccc(-c2ccc3nc(-c4ccc(F)c(C)c4)oc3c2)c(OC)c1OC | inconclusive: 22.4 µM [inhibitor, full curve, poor fit]
56 | Cc1cc2nc3n(c(=O)c2n1CC(=O)Nc1ccccc1)CCC3 | inconclusive: 89.1 µM [inhibitor, single point]
57 | Cc1c(-c2ccccc2F)[nH]c2ccc(CNC(=O)CCc3cnccn3)cc12 | inconclusive: 25.1 µM [inhibitor, partial curve]
58 | CC(CCc1ccccc1)NC(=O)Cn1cccc1-c1nc(-c2ccccc2)no1 (configuration not stated) | inactive
59 | OCCc1cnc2c(-c3nc(-c4cccnn4)no3)cnn2c1 | inconclusive: 50.1 µM [inhibitor, partial curve, poor fit]
60 | O=C(O)Cn1ccc2cc(OCCc3cccc(-c4ccccc4)c3)cnc21 | inactive
61 | CN1CCN(C(=O)c2cnc(-c3ccccn3)nc2)[C@H]2CS(=O)(=O)C[C@H]21 | inconclusive: 70.8 µM [inhibitor, partial curve]
62 | CCOC(=O)C1(Cc2cccc(OC)c2)CCCN(C(=O)CCN2CCCCO2)C1 (configuration not stated) | inactive
63 | O=C(NCc1ccco1)C1COC2(CCN(C(=O)c3ccco3)CC2)N1C(=O)c1ccc(F)cc1 (configuration not stated) | inactive
64 | CC(C)Oc1ccc(C(=O)NC2CCN(c3cnn(C)c(=O)c3)CC2)cc1 | inactive
65 | COc1ccc2ccc(OCc3nc(C(=O)N(C)CC4COCCO4)co3)cc2c1 (configuration not stated) | inconclusive: 50.1 µM [inhibitor, partial curve, poor fit]
66 | CN(Cc1ncc[nH]1)c1ccc(-c2nc(CCCc3ccccc3)no2)cn1 | inconclusive: 35.5 µM [inhibitor, partial curve]
67 | Cc1ccc(CN[C@@H]2CO[C@H](CNC(=O)Nc3ccccc3)[C@H]2O)cc1 | inactive
68 | Cc1noc(-c2nc(-c3ccc4c(c3)OCO4)no2)n1 | inconclusive: 11.2 µM [inhibitor, full curve]
69 | COc1ccc(NC(=O)c2cc(-c3ccc[nH]3)n[nH]2)c(OC)c1 | active: 20 µM
70 | CCCN1C(=O)Cc2ccccc2C1C(=O)NCc1ccccc1Cl (configuration not stated) | inconclusive: 44.7 µM [inhibitor, partial curve]
71 | COC(=O)[C@H](Cc1ccc(OC)cc1)NC(=O)[C@H]1CN(C(C)=O)CCN1C(=O)C1CCCCC1 | inactive
72 | CCC(C)(C)C(=O)NC1CCN(c2cnn(CC3CC3)c(=O)c2)CC1 | inactive
